Assays:
Assay type in all cases: cell-based, human
[1] = tested on: Karpas422-luc cells; assay: RTCC assay with BBMs (Example 2)
Protocol: (§1) A RTCC assay with the BBMs of Example 1A was performed to measure the ability of the BBMs to elicit RTCC against CD19+ Nalm6-luc and Karpas422-luc cells. Nalm-6 is a human B cell precursor leukemia cell line and Karpas422 is a human B-cell non-hodgkin lymphoma cell line. Briefly, Nalm6 and Karpas422 cells engineered to express the firefly luciferase reporter gene were cultured in RPM 11640 culture media with 10% fetal bovine serum (FBS). 10,000 target cells with serial diluted BBMs or gH isotype antibody control (αgH-CD3hi) were seeded on 384-well flat-bottom microtiter plate. Primary human T cells were isolated from cryopreserved peripheral blood mononuclear cells (PBMCs) and expanded using anti-CD3 and anti-CD28 dynabeads (Thermo fisher, catalog #11131 D) and subsequently cryopreserved. Expanded T cells were thawed and aliquoted to the plate to achieve an effector cell (i.e., T cell) to target cell (i.e., cancer cell) ratio (E:T ratio) of 3:1. Plates were incubated in a 37° C. incubator with 5% CO2 overnight. Following the co-incubation, Bright Glo (Promega, catalog #E2620) was added to all wells and the luminescence signal was subsequently measured on an Envision (Perkin Elmer). Target cells with Bright Glo served as maximal signal. The percent RTCC of target cells was calculated using the following formula: [100−(sample/maximal signal)*100%].

[2] = tested on: Nalm6-luc cells; assay: RTCC assay with BBMs (Example 2)
Protocol: as §1

[3] = tested on: T cells co-cultured with Karpas422 or Nalm-6 target cells; assay: BBM-induced T cell proliferation, Cell Trace Violet dilution (Example 3); conditions: E:T 1:1, 96 hrs, 16 pM-10,000 pM
Protocol: The BBMs described in Example 1A, containing the variable regions of NEG258 and NEG218, were evaluated for their ability to induce T cell proliferation upon co-culture with CD19 expressing target cells. Briefly, Karpas422 and Nalm-6 target cells stably expressing firefly luciferase were irradiated on the day of the assay and plated at a density of 60,000 cells per well in a Costar 96 well plate (Corning, Cat #3904) in T Cell Media (TCM) [RPMI-1640 (ThermoFisher Scientific, Cat #11875-085), 10% FBS (Seradigm, Cat #1500-500), 1% L-Glutamine (Thermo Fisher Scientific, Cat #25830-081), 1% Non Essential Amino Acids (Thermo Fisher Scientific, Cat #11140-050),1% Pen/Strep (Thermo Fisher Scientific, Cat #15070063), 1% HEPES (Thermo Fisher Scientific, Cat #15630080), Sodium Pyruvate (Thermo Fisher Scientific, Cat #11360-070), 0.1% Beta-mercaptoethanol (Thermo Fisher Scientific, Cat #21985-023)]. Peripheral blood mononuclear cells (PBMCs) previously isolated from Leukopak donors (Hemacare) and cryopreserved were thawed and Pan T cells were isolated by negative selection using the Pan T cell Isolation Kit, human [Miltenyi Biotec, Cat #130-096-535] following the manufacturer's protocol. […] The samples were then run on BD LSR Fortessa and analyzed using FlowJo to determine % proliferated CD3+ T cells based on CD3 staining and dilution of Cell Trace Violet dye.

B1: NEG258-based BBM: bispecific of Example 1A: NEG258 anti-CD19 half antibody and CD3hi anti-CD3 scFv-Fc, knob-into-hole (antibody)
heavy: QVQLVQSGAEVKKPGASVKVSCKASGYTFTTYWIQWVRQAPGQRLEWMGAVYPGDADTRYTQKFQGRVTLTADRSASTAYMELSSLRSEDTAVYYCGRDAGLEYYALDYWGQGTLVTVSSASTKGPSVFPLAPSSKSTSGGTAALGCLVKDYFPEPVTVSWNSGALTSGVHTFPAVLQSSGLYSLSSVVTVPSSSLGTQTYICNVNHKPSNTKVDKRVEPKSCDKTHTCPPCPAPELLGGPSVFLFPPKPKDTLMISRTPEVTCVVVAVSHEDPEVKFNWYVDGVEVHNAKTKPREEQYASTYRVVSVLTVLHQDWLNGKEYKCKVSNKALAAPIEKTISKAKGQPREPQVCTLPPSREEMTKNQVSLSCAVKGFYPSDIAVEWESNGQPENNYKTTPPVLDSDGSFFLVSKLTVDKSRWQQGNVFSCSVMHEALHNHYTQKSLSLSPGK
light: EIVMTQSPATLSVSPGERATLSCRASQDVGTAVAWYQQKPGQAPRLLIYWASTRHTGIPARFSGSGSGTEFTLTISSLQSEDFAVYFCQQYANFPLYTFGQGTKLEIKRTVAAPSVFIFPPSDEQLKSGTASVVCLLNNFYPREAKVQWKVDNALQSGNSQESVTEQDSKDSTYSLSSTLTLSKADYEKHKVYACEVTHQGLSSPVTKSFNRGEC
chain: EVQLVESGGGLVQPGGSLKLSCAASGFTFNTYAMNWVRQASGKGLEWVGRIRSKYNNYATYYADSVKDRFTISRDDSKSTLYLQMNSLKTEDTAVYYCVRHGNFGNSYVSWFAYWGQGTLVTVSSGGGGSGGGGSGGGGSGGGGSQAVVTQEPSLTVSPGGTVTLTCRSSTGAVTTSNYANWVQQKPGQAPRGLIGGTNKRAPWTPARFSGSLLGDKAALTLSGAQPEDEAEYFCALWYSNLWVFGGGTKLTVLGGGGSDKTHTCPPCPAPELLGGPSVFLFPPKPKDTLMISRTPEVTCVVVAVSHEDPEVKFNWYVDGVEVHNAKTKPREEQYASTYRVVSVLTVLHQDWLNGKEYKCKVSNKALAAPIEKTISKAKGQPREPQVYTLPPCREEMTKNQVSLWCLVKGFYPSDIAVEWESNGQPENNYKTTPPVLDSDGSFFLYSKLTVDKSRWQQGNVFSCSVMHEALHNRYTQKSLSLSPGK
Question: Which results are given for B1?
Answer: redirected T-cell cytotoxic activity (RTCC) [1]: mediated RTCC activity; redirected T-cell cytotoxic activity (RTCC) [2]: mediated RTCC activity; T cell proliferation (% proliferated CD3+ T cells) [3]: more potent activity than the NEG218-based BBM
